About 540 (0.36%) of roughly 150,000 compounds showed an effect of 50% or more. Some of the results follow.
tested on: Plasmodium falciparum; experiment: Primary screen in NF54 nanoGlo assay, in single point, at 2uM, 72h; a lower Z score goes with more inhibition; assay type: functional, Erythrocyte; conditions: timepoint 72 hour

Compound	% Inhibition	Z score
C[C@H](OC(=O)c1c(Cl)ccc(Cl)c1Cl)C(N)=O	-10%	1.42
CN(C)CC1(O)CCC2(CCN(S(=O)(=O)c3cccc4nsnc34)CC2)CC1	-19%	2.73
COCCNc1nc(-c2cc(F)ccc2F)c2c(N)n(-c3cccc(C)c3)nc2n1	5%	-0.72
COc1ccc(OC)c(C2CC2C(=O)N2CCc3cnccc32)c1 (stereo not drawn)	-1%	0.14
CC(C)N(C)Cc1ncnn1CC1CCCCC1	-8%	0.77
O=S(=O)(c1cccs1)N1CCOC2(CCOCC2)C1	-8%	1.46
COC(=O)c1ccc(S(=O)(=O)N2CC(N(C)C)C2)cc1OC	6%	-0.51
Cc1cccc(N2CC[C@@H](C(=O)N3CCN(Cc4ccccc4)CC3)C2=O)c1	-16%	1.67
CC(=O)N1CCC([C@H]2CCN(Cc3ccc(C)cc3C)C2)CC1	-9%	1.06
Cc1cc(Cl)ccc1C=Cc1nc(C)c(CCC(=O)O)c(=O)[nH]1	6%	-0.78
Cc1nn(-c2ccc(F)cc2)c2nc(N3CCCN(C(=O)c4ccccc4F)CC3)sc12	-16%	1.84
CN1CC[C@H](C(=O)N2CCN(c3c(F)cccc3F)CC2)CC1=O	-6%	0.82
C[C@H](NC(=O)Cn1ccc(=O)[nH]c1=O)c1nc(C(C)(C)C)cs1	-17%	2.61
Cc1nc(C)c(COCc2[nH]nnc2-c2ccccc2)s1	-9%	1.45
CCCS(=O)(=O)N1CCN(c2cnnc(N3CCCC3)c2)CC1	-9%	1.62
Cc1cc(-c2cc(-c3cc(F)cc(F)c3)nc(CC(N)=O)n2)c(C)o1	-8%	1.29
CC(C)c1csc(CN2CCN(C3CCN(C(C)C)CC3)[C@@H](CCO)C2)n1	-5%	0.9
C[C@@H]1Oc2ccc(NC(=O)COc3ccccc3)cc2CN(Cc2ccc(F)cc2)C1=O	-1%	0.16
Cc1cc([C@@H](C#N)c2ccc(Cl)cc2)c(Cl)cc1NC(=O)Cc1ccc(Cl)cc1	-3%	0.66
COc1cc(CN2CCC(F)(c3nc(-c4cnccn4)no3)CC2)ccc1O	-4%	0.73
COc1ccc2ncc(=O)n(CCOc3ccccc3)c2c1	32%	-4.38

Compound	% Inhibition	Z score
N#Cc1ccc(S(=O)(=O)N2CC(c3nc(CCOCc4ccccc4)no3)C2)cc1	-18%	2.34
CC1CC(n2nnc3c2CN(C(=O)c2ccc4c(n2)CCCN4)CC3)C1 (stereo not drawn)	3%	-0.65
COc1ccc(Cc2ncc3c(n2)CN(C(=O)[C@H](N)CC(C)C)C3)cc1	-13%	1.83
C[C@@H]1CC(=O)N[C@H](C(=O)NCCn2ccnc2)C1	-13%	1.58
Cc1cccc(Cl)c1CC(=O)N1CCC[C@H](O)C1	-4%	0.66
Cc1oc(-c2[nH]ncc2C(=O)N2CCCC2)cc1S(=O)(=O)NCc1cccnc1	2%	-0.25
Cc1ccccc1-c1nc2n(n1)C1(CCCCC1)[C@@H]1CCCC[C@@H]1N2C(=O)c1ccco1	-10%	0.89
CCN(C(=O)c1cccc(N2CCNC2=O)c1C)c1nc(C)cs1	-5%	0.53
CC(C)(C(=O)N1CCC(C(=O)N2CCCC2)CC1)c1ccc2c(c1)OCO2	-4%	0.6
CCc1nccn1CCC(=O)N1CCC[C@H](c2nnc[nH]2)C1	-5%	0.81
O=C(Nc1nc(C2CC3CCC2C3)cs1)N1C2CCC1CC(O)C2 (stereo not drawn)	-3%	0.47
C[C@@]1(C2CCNCC2)NC(=O)N(CCCc2ccccc2)C1=O	-8%	1.62
CC(C)CCc1nc(N2CCCN(C(=O)c3cccc4ccccc34)CC2)c2cnn(-c3cccc(Cl)c3)c2n1	2%	-0.28
CCCC[C@@H]1C[C@@H]1C(=O)N1CCC(n2cc(C3CCCC3)nn2)CC1	-18%	2.29
O=C(NCCc1ccccc1F)N1CCN([C@@H](c2ccccc2)c2ccc(Cl)cc2)CC1	-1%	0.06
Cn1c(C2CC2)nn(C[C@H]2CCCO2)c1=O	-10%	1.5
CCO[C@H]1CN(C(=O)COc2ccc(Cl)cc2C)C[C@@H]1O	-9%	1.56
Cn1cnc2c(NCC(=O)N3CCN(c4ccccc4)CC3)ncnc21	-1%	0.15
COc1cc(-c2nc(CN3[C@@H]4CC[C@H]3CNC(=O)C4)c(C)o2)cc2c1OCO2	-12%	1.33
CNS(=O)(=O)[C@H]1CCN(Cc2ccc(Oc3ccccc3)o2)C1	35%	-3.95
O=S1(=O)CCCC[C@@H]1CNCc1cnnn1Cc1ccccc1	-13%	2.5

Compound	% Inhibition	Z score
CS(=O)(=O)N1CCc2nc(NC(=O)c3cncc(Br)c3)sc2C1	-3%	0.45
Cc1ccc(N2CC(C(=O)NC3CCN4CCCCC34)CC2=O)cc1 (stereo not drawn)	2%	-0.32
CC[C@H](NS(=O)(=O)C1CC1)c1cc(C)ccn1	4%	-0.77
CCc1ccc([C@@H]2CCCCN2C(=O)c2ccc3cc[nH]c3n2)o1	-1%	0.18
COc1ccc2c(c1)c(N1CCCC1=O)c(C(=O)NC1CCCCC1)n2C	5%	-0.74
CC1CCCN(C(=O)CN2CCCC2c2nnc3ccccn23)C1 (stereo not drawn)	-2%	0.42
CCS(=O)(=O)N1CCC[C@H]1c1nnc(C(=O)Nc2ccc3c(c2)OCO3)s1	-5%	0.92
CCCc1cncc(OCC(=O)Nc2ccc(OC)c(OC)c2)c1	9%	-1.51
COc1ccc(CNC(=O)C[C@@H]2O[C@H](CNCc3ccccn3)[C@@H](O)[C@H]2O)cc1	-6%	0.8
O=C(CC1CCCCC1)N[C@H]1CCCN(c2cc(-c3ccccc3)n[nH]2)C1	-12%	1.24
Cn1nncc1S(=O)(=O)NC[C@@]1(C)CCCN1Cc1ccccc1	-3%	0.5
CCCCS(=O)(=O)N1CC[C@H](CNc2nccn(CC(C)C)c2=O)C1	-12%	1.82
O=C(CCc1nc(-c2ccc(S(=O)(=O)N3CCOCC3)cc2)no1)NC1CCCCC1	-7%	0.84
C[C@H](O)c1ccc(CCNC(=O)C2CCC2)s1	0%	0.09
O=C(CCc1ncc(-c2ccccc2)o1)N1CCc2ccccc2C1	-1%	0.19
COc1ccc(N2CCN(C(=O)c3ccn4c(-c5ccccc5)nnc4c3)CC2)cc1	-3%	0.29
Cc1cc(NC(=O)C2CN(C(=O)c3cc(C)on3)C2)no1	-9%	1.48
O=C1OCCN1CC(=O)N(CC1CC1)C1CCCCC1	-11%	1.73
Clc1ccc(-c2csc3ncnc(NC4CCCCCCC4)c23)cc1	-2%	0.29
COc1ccc(CN2C(=O)COC[C@H]2C(=O)N2CCC(C)CC2)cc1OC	-2%	0.28
O=C(CCN1CCN(c2ccc(O)cc2)CC1)NC1CCCCC1	0%	-0.05

Compound	% Inhibition	Z score
C[C@H](NC(=O)c1cncs1)c1nnc(N)s1	1%	-0.17
N#Cc1cnn2cc(-c3cc(NCc4cccnc4)nc4[nH]ccc34)cnc12	-13%	2.56
O=c1[nH]cnc2c1cnn2Cc1ccc(F)cc1	-12%	1.4
CC[C@H]1c2cccn2CCN1Cc1cc(C(N)=O)cs1	-9%	1.16
CC(=O)N1CCCN(c2ccc(F)cc2NC(=O)N2CCC[C@@H]2CO)CC1	-2%	0.31
O=C(NC1CC1)c1cccc(S(=O)(=O)N2CCOCC23CCC3)c1	19%	-2.44
CO[C@@H](C)CNS(=O)(=O)c1c(Cl)ccc(F)c1F	-15%	1.23
Nc1nc(N2CCN(Cc3ccc(Cl)o3)CC2)cc(=O)[nH]1	-9%	1.15
O=C1CC2(CCN(CCOCc3ccccc3)CC2)CN1	10%	-0.92
O=C1C2C(c3ccccc3)C=CC(c3ccccc3)C2C(=O)N1CCc1ccccc1 (stereo not drawn)	-1%	0.17
Cc1cnc(CCN(C)Cc2cnc3c(C)cccn23)s1	-5%	0.45
Nc1nnnn1CC(=O)N[C@H]1CC(=O)Nc2ccccc21	10%	-1.71
CO[C@@]12CC[C@@H](O)C[C@@H]1N(C(=O)c1ccc(-c3ccco3)cc1)CC2	-1%	0.12
CCOc1ccccc1NC(=O)c1cn2c(n1)CCCC2	-7%	1.13
Cc1csc(CN(C)Cc2ccc(CN(C)C)cc2)n1	0%	-0.03
FC1(F)CC(CN2CCc3[nH]ncc3C2)C1	-1%	0.16
CN(Cc1ccncc1)c1ccc(Cl)c(C#N)n1	-8%	1.12
CC(=O)Nc1cc(Cl)c(NC(=O)[C@H]2CCCO2)c(Cl)c1	-6%	0.81
CCCC(=O)N1CCN(c2cc(NCC)nc(C)n2)CC1	0%	0.01
Cc1cnn(CC(=O)NCCn2c(C)cnc2C2CC2)c1	-7%	1.2
N#CCN(CC=Cc1ccccc1)C1CC1	-17%	2.63

Reference: ChEMBL document CHEMBL4888484, “Replenishing the malaria drug discovery pipeline: Screening and hit evaluation of the MMV Hit Generation Library 1 (HGL1) against asexual blood stage Plasmodium falciparum ,using a nano luciferase reporter read-out” (2022)
